In patent US20240279313A1, “BARRIER FUNCTION PRESERVING PEPTIDES FOR MEMBRANES” (priority 2021, published 2024):

Experiments:
[1] = SAXS, suppression of PG-1-induced cubic phases (NGC); settings: PG-1 P/L 1/40, apoMP1 P/L varied
Description: Since apoA-I assembles spheroidal HDL particles with small radii, it can stabilize positive membrane curvature by definition. […] To test the idea that an apoMP may suppress H4n pore-forming activity via membrane-mediated interactions, we developed a theoretical model (Supporting Information) for mixtures of two membrane-bound peptides (or proteins), one inducing negative (−) Gaussian curvature (ex: saddle-shaped deformations from H4n) and the other positive (+) Gaussian curvature (ex: dome-shaped deformations from apoMP1), in which positive curvature is induced in the membrane with no assumed preferred direction. Each peptide is taken to induce local principal curvatures in the membrane, ξ1 and ξ2, which work against the membrane deformations given by the Helfrich free energy over the membrane area FHelfrich=(π/2)∫dA(a2+a2)^2 with bending rigidity κ. The energy of a single (±) peptide is E2/(kBT)≡(λ/2)[(a1−ξ1,z)^2+(a2−ξ2,z)^2] when the peptide's maximal curvature is aligned with the membranes, where (λ/2)+(ξ1, ±^2+ξ2, ±^2) is the energy cost of binding a peptide to a flat membrane, λ is a dimensionless coupling constant, and the induced principal curvatures depend on the peptide type. Analogous to classical nucleation theory, the free energy scales as E=−σπΓ for a pore of radius r and pore rim line tension Γ on a membrane with effective surface tension σ. […]

[2] = SAXS, effect of apoMP1 on inverse hexagonal phase; settings: FIG. 3d
Experimental: FIG. 3. Apolipoprotein A-I mimic apoMP1 inhibits the pro-lytic membrane activity of histone H4 N-terminus and unrelated peptides. FIG. 3(a) SAXS spectra of PS/PE/CH 20/70/10 SUVs incubated with H4n and apoMP1. The P/L molar ratio of H4n was held constant at 1/40, while the P/L molar ratio of apoMP1 was varied. […] FIG. 3(b) SAXS spectra of PS/PE 20/80 SUVs co-treated with the AMP PG-1 (NGC-generating peptide) and apoMP1. The P/L molar ratio of PG-1 was held constant at 1/40, while the P/L molar ratio of apoMP1 was varied. […] FIG. 3(c) SAXS spectra of PS/PE 20/80 SUVs co-treated with the CPP HIV-TAT (NGC-generating peptide) and apoMP1. The P/L molar ratio of HIV-TAT was held constant at 1/40, while the P/L molar ratio of apoMP1 was varied. […] FIG. 3(a-d) Observed reflections for the Pn3m cubic (green), Im3m cubic (yellow), hexagonal (blue), and lamellar (red) phases have been assigned on the curves. (e) Schematic portrayal of the suppression of H4n-induced NGC generation and pore formation by apoMP1.
Since apoA-I assembles spheroidal HDL particles with small radii, it can stabilize positive membrane curvature by definition. […]

[3] = SAXS of SUVs with NGC-generating peptide alone; settings: P/L 1/40; PS/PE 20/80 SUVs
Experimental: Before assessing how apoMP1 may influence the pore-forming activity of H4n, we conducted a control study to confirm H4n's ability to generate membrane-destabilizing curvature at lipid compositions of interest. Small unilamellar vesicles (SUVs) were prepared from ternary lipid mixtures of phosphatidylserine (PS), phosphatidylethanolamine (PE), and cholesterol (CH) at molar ratios of PS/PE 20/80 and PS/PE/CH 20/70/10. Because cholesterol constitutes a large fraction of mammalian cell membranes,^41 we used physiologically relevant cholesterol-containing SUVs to examine the effect of cholesterol on the membrane-remodeling properties of H4n. For the model membrane PS/PE 20/80, we observed a coexistence of three phases: (1) a lamellar phase (Lα) (peaks with q-ratios 1:2:3), (2) an inverse hexagonal phase (HII) (peaks with q-ratios √1:√3:√4:√7:√9), and (3) a Pn3m inverse bicontinuous cubic phase (QII) with a lattice parameter of 20.03 nm (peaks with q-ratios √2:√3:√4) (FIG. 2d). The Pn3m phase is rich in NGC (FIG. 2c). For the cholesterol-containing model membrane PS/PE/CH 20/70/10, we again observed a similar phase coexistence, but with a smaller lattice parameter in the Pn3m phase (18.30 nm) (FIG. 2d, Table S1). […] For Pn3m, χ=−2 and A0=1.919.

Substance	Effect on PG-1-induced Pn3m and Im3m QII phases (NGC) [1]	Effect on PG-1-induced Pn3m and Im3m QII phases (NGC) ([1]; listed as ApoMP1)	Phase transformation by apoMP1 [2]	Phase transformation by apoMP1 ([2]; listed as ApoMP1)	Phases induced by peptide alone [3]
D-W-F-K-A-F-Y-D-K-V-A-E-K-F-K-E-A-F (DWFKAFYDKVAEKFKEAF) [apoMP1]	suppressed at high P/L molar ratios	dose-dependent suppression	transform an inverse hexagonal phase with strong negative mean curvature into a lamellar phase with zero mean curvature	transform an HII phase with strong negative mean curvature into an Lα phase with zero mean curvature	–
R-G-G-R-L-C-Y-C-R-R-R-F-C-V-C-V-G-R (RGGRLCYCRRRFCVCVGR) [PG-1, antimicrobial peptide, NGC-generating]	–	–	–	–	Lα, HII, Pn3m QII, and Im3m QII phases
